The data set deals with the molecule itself. In words: dynamic light scattering.

B1: proIGF2 (natural protein)
chain: not shown
As for B1, the binding result was “binds”.

(Values after doi:10.1101/2021.10.11.463904 (bioRxiv, 2021).)
